From patent US20090130105A1 (Biogen, published 2009)

Target: T1, human IGF-1R(1-902)-His10 (human, UniProt P08069 31-932)
T1 construct: Bought from R&D Systems (305-GR-050); also called hIGF-1R-His10; hIGF-1R-His
Assay: SPR (Biacore 3000): IGF-1 titrated into 40 nM hIGF-1R-His, mixture injected over immobilized M13-C06
Protocol: Regeneration was achieved by three 10 μL injections of 0.1 M glycine, pH 2.0. 100% hIGF-1R-His binding to each antibody was determined by the signal above the baseline under mass transport-limiting conditions 60 seconds into the injection.

T1 sequence (P08069 other isoform, or with tags, fused parts or gaps): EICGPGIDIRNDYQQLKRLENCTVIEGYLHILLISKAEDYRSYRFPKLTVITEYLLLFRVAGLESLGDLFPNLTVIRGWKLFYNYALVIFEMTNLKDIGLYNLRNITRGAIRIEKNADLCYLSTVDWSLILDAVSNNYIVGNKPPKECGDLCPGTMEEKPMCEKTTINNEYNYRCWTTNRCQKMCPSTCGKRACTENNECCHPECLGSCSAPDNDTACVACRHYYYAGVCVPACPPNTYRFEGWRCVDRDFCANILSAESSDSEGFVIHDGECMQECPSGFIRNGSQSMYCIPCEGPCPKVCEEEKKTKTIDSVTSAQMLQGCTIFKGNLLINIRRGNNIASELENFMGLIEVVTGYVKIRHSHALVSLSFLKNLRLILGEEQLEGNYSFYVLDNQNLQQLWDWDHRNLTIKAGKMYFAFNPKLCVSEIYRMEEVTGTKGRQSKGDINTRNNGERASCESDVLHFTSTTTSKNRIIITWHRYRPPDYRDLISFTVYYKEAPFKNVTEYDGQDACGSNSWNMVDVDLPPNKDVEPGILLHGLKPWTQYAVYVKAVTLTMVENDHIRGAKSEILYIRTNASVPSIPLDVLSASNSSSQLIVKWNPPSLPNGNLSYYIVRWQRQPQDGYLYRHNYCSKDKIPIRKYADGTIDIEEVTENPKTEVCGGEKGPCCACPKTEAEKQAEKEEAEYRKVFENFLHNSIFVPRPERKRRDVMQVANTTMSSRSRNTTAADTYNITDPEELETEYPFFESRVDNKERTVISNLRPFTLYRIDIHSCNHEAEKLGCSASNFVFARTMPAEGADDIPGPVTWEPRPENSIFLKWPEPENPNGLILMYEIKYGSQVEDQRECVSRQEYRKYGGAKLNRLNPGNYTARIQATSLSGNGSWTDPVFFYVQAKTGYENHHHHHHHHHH

IC50 (read off the curve): ~20 nM
B1: human IGF-1 His (ligand)
chain: not shown
